Measurements: PubChem BioAssay AID1240 (Sanford-Burnham Center for Chemical Genomics, 2008)
In all, about 50,000 compounds went through this assay and about 800 (1.6%) showed an effect of 50% or more. The list shows a part of the results.

These compounds were tested against Bcl-2-like protein 10 (Homo sapiens) (UniProt Q9HD36) (assay: TR3 peptide-Bcl-B binding displacers, biochemical primary FP assay, phenotype converters (AID 1240;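 further: 0% = Bcl-B with tracer peptide and DMSO and 100% = tracer peptide lacking Bcl-B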)). Details: GST-Bcl-B / FITC-TR3 peptide fluorescence polarization; stronger effect = higher value; compound at 3.75 mg/L.
Chain of UniProt Q9HD36 (Q9HD36 whole entry, looked up): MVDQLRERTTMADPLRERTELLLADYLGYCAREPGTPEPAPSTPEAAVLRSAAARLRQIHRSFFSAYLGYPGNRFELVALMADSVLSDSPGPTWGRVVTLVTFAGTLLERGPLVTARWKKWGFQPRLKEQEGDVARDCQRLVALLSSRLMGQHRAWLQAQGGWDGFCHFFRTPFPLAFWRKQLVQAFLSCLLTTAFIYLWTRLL
For `COc1cc(/C=C2/C(=O)NN(c3ccc(Cl)cc3)C2=O)cc(Br)c1O`, the displacement was 17.8%.
